In patent US20230234998A1 (ACCELERON PHARMA, published 2023):

Molecular target: T1, human BMP9 (human, UniProt Q9UK05 320-429)
T1 construct: Bought from R&D Systems
T1 sequence (looked up): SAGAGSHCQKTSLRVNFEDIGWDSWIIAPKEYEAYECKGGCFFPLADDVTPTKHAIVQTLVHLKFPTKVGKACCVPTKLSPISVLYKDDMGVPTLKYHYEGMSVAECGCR
Test: SPR (BIACORE), TWSG-Fc captured with anti-Fc antibody, ligand injected, 37 C
From the text: Previous studies have determined that TWSG, or its nonmammalian homolog Tsg, binds with high affinity to BMP2, BMP4, and BMP7 (Oelgeschläger et al., 2000, Nature 405:757-763; Scott et al., 2001, Nature 410:475-478; Chang et al., 2001, Nature 410:483-487). Since these studies have not systematically evaluated TWSG (or Tsg) binding to other TGFβ superfamily ligands, Applicants used surface plasmon resonance to investigate and characterize such binding. In an initial qualitative screen, recombinant murine TWSG (mTWSG; R&D Systems, Minneapolis, MN) was covalently immobilized on a BIACORE™ CM5 chip, and more than 30 ligands generated in-house or obtained from R&D Systems were injected individually over the captured mTWSG to characterize their degree of binding at room temperature. Based on the results of this screen, Applicants subjected selected ligands to quantitative characterization of binding to human TWSG fusion protein at physiologic temperature. For this analysis, TWSG-Fc was expressed in CHO cells, purified as described in Example 1, captured on a BIACORE™ chip with anti-Fc antibody, and tested by surface plasmon resonance with the following ligands at 37° C.

kon: ~5.7e+06 M⁻¹ s⁻¹
B1: human TWSG-Fc fusion protein (full-length human TWSG attached at its C-terminus to a human IgG1 Fc domain with a minimal linker) (Fc fusion)
chain: CNKALCASDVSKCLIQELCQCRPGEGNCSCCKECMLCLGALWDECCDCVGMCNPRNYSDTPPTSKSTVEELHEPIPSLFRALTEGDTQLNWNIVSFPVAEELSHHENLVSFLETVNQPHHQNVSVPSNNVHAPYSSDKEHMCTVVYFDDCMSIHQCKISCESMGASKYRWFHNACCECIGPECIDYGSKTVKCMNCMFTG[no letters for human IgG1 Fc and a few adjoining residues]
notes: a homodimer appears only in embodiments and claims; also called hTWSG-hFc; TWSG-hFc
